# In ChEMBL document CHEMBL4888484, “Replenishing the malaria drug discovery pipeline: Screening and hit evaluation of the MMV Hit Generation Library 1 (HGL1) against asexual blood stage Plasmodium falciparum ,using a nano luciferase reporter read-out” (2022):
# About 540 (0.36%) of roughly 150,000 compounds showed an effect of 50% or more. Some of the results follow.
# System: Plasmodium falciparum
# Assay: Primary screen in NF54 nanoGlo assay, in single point, at 2uM, 72h; a lower Z score goes with more inhibition
# Type: functional, Erythrocyte
# Settings: timepoint 72 hour
Structure (SMILES),% Inhibition,Z score
O=C1CC(c2ccccc2)N2N=C(N3C(=O)C4CCCCC4C3=O)NC2=N1 (centres undefined),5%,-0.48
CNC(=O)CC1CCC(C(F)(F)F)CC1 (centres undefined),-3%,0.63
c1ccc([C@@H]2CCCN2Cc2cnn(-c3ccccc3)n2)cc1,-2%,0.22
Cn1cc(N2C[C@@H](c3nc(-c4cccs4)no3)CCC2=O)cn1,-3%,0.47
Cc1c(C(=O)N2CCCCC2)c(S(=O)(=O)N2CCN(C)CC2)c(C)n1C,-7%,1.41
Cc1ccc(NC(=O)CC2CCN(S(=O)(=O)c3ccc(Cl)s3)CC2)cc1,-12%,1.59
C[C@H]1CCN(C(=O)CN(C)C(=O)c2cccs2)CCS1(=O)=O,-8%,1.6
C=CCOc1ccc(C(=O)N[C@H]2CCN(C3CC3)C2=O)cc1,-9%,1.22
O=C1OC[C@@H]2CCN(Cc3ccccn3)Cc3ccc(F)cc3N12,0%,-0.05
COc1ncccc1C(=O)N1C2CCC1CC(F)C2 (centres undefined),-5%,0.64
Cc1nccn1C[C@H]1CCCN(C(=O)Cc2cccnc2)C1,-22%,2.37
CN1CCC[C@H](C(=O)NCCc2nc3ccccc3o2)C1,2%,-0.4
CC1CN(C(CNCc2cnn(C)c2)c2cccs2)CCO1 (centres undefined),-9%,0.92
CC(C)(C(=O)N1CCn2c(Cc3cccc(F)c3)nnc2C1)n1cc(N)cn1,-3%,0.55
Cc1nn(C)c(N)c1C(=O)N(C)[C@@H](C)c1ccc(-c2ccccc2)cc1,-22%,2.19
C=CCN1C[C@@H](c2nc(COc3ccc(C(C)(C)C)cc3)n[nH]2)CC1=O,-15%,1.63
CCO[C@H]1COC[C@@H]1NS(=O)(=O)c1ccc(-c2c(C)noc2C)s1,-15%,3.09
CCc1ccc(CN2CCCn3nc(CNC(=O)N(C)C)cc3C2)nc1,-14%,1.87
CCCCCN(C(=O)Nc1cnn(CCOC)c1)C(C)C,-1%,0.26
COc1ccc2cc3n(c2c1)C[C@@](C)(C(=O)NC1CCCCCC1)N(CCCN1CCCCC1)C3=O,4%,-0.59
O=C([C@H]1CCCN(C2CCN(c3nc4ccccc4o3)CC2)C1)N1CC=CCC1,-1%,0.14
Cc1nnc2n1[C@@H](C)CN(C(=O)c1cccc(N(C)C)c1)C2,-7%,1.33
Cc1cccnc1N[C@@]1(C(F)(F)F)N=C(c2ccccc2)N(C2CCCC2)C1=O,-1%,0.07
Cc1ccc(/C(N)=N/NC(=O)OC(C)(C)C)cc1,-8%,0.86
COc1cccc([C@@H]2Cn3nnc(-c4nc(-c5ccc(F)c(Br)c5)no4)c3CO2)c1,-5%,0.54
NC(=O)c1cccc(CNCC2(O)CCCCCC2)c1,-6%,0.87

Structure (SMILES),% Inhibition,Z score
O=C(C[C@H]1Cc2ccccc2C2(CCN(Cc3cccnc3)CC2)O1)NCC1CC1,-8%,1.07
CN1CCC[C@@]2(CCN(CC(=O)Nc3ccc4c(c3)CCC4)C2)C1,3%,-0.57
CC(C)Cn1cc(C(F)F)c(C(=O)NCc2ccncc2)n1,-8%,0.82
CCC(CC)N[C@H]1CCCc2cccnc21,-9%,1.43
COc1ccc(CNC(=O)c2cnn3c(=O)cc(C)[nH]c23)cc1,-12%,1.55
CC[C@@H]1Oc2ccc(Cl)cc2N(CC(=O)N2CCN(c3cc(=O)n(C)c(=O)n3C)CC2)C1=O,-1%,0.14
Cc1noc2nc(C3CC3)cc(C(=O)N[C@@H]3Cc4ccccc4[C@H]3O)c12,-8%,1.04
COc1ccc([C@H]2C(C(N)=O)=C(C)Nc3nc(C)nn32)cc1OCc1ccccc1,-9%,1.2
Cc1ccc(-c2cc(C(=O)N(Cc3cccs3)[C@H]3CCS(=O)(=O)C3)no2)cc1F,-11%,2.15
O=C(NCC1(Cn2ccnc2)CC1)c1cncc(Cl)c1,-12%,1.48
O=C(Cn1nc(N2CCOCC2)ccc1=O)N1CCN(Cc2ccccc2)CC1,-8%,1.51
CCn1ccnc1CN1CCN(C(=O)c2ccccn2)[C@H]2CS(=O)(=O)C[C@H]21,-15%,1.88
O=C1[C@H]2CN(Cc3ccc(Cl)cc3)C[C@H]2C(=O)N1CCc1ccccc1,0%,0.02
CCn1cc(C(=O)N2C(C)CC(c3ccccc3)C2C)cn1 (centres undefined),-13%,1.88
CC(C)CCNC(=O)[C@@H]1CCC(=O)N1C(C)C,6%,-0.92
O=C(NCC1(Cc2ccc(F)cc2)CCCC1O)N1CCC(F)(CO)C1 (centres undefined),-4%,0.5
Cn1nccc1C(=O)N1CCC(F)(c2cccc(Cl)c2)CC1,11%,-1.44
CCN1CCC[C@@H]1CNC(=O)C1CCN(S(=O)(=O)c2ccc3c(ccn3CC)c2)CC1,-13%,1.97
CC[C@H]1CCCCN1C(=O)c1cc(-c2ccc(C3CCCCC3)cc2)on1,-20%,1.78
O=C(Nc1ccc2c(n1)OCCO2)[C@H]1CC[C@@H](C(=O)N2CCOCC2)O1,1%,-0.1
Cc1cnc(C(=O)N(C)Cc2c(C)noc2C)cn1,4%,-0.87
O=C(CCn1cnnn1)N1CCC2(CCC(=O)N(Cc3ccccn3)C2)CC1,-10%,1.21
O=C(NCCCc1ccccc1Cl)c1ccc(CN2CCCC2)cc1,21%,-2.85
NC(=O)c1c(F)cccc1OCc1nnc(C2CC2)o1,-15%,1.54
COc1ccc2c(c1)CCc1c(C(=O)NCc3ccc4c(c3)OCO4)n[nH]c1-2,-11%,2.01
O=C(C1CCN(c2ccc3nncn3n2)CC1)N1CCN(c2ccccn2)CC1,-6%,0.83
